According to PMC6727365:
No constants are given. Whether binding was seen depends on the method and setting. Binding seen in cells or lysates may run through a third protein. Some entries that bind do so weakly or less than the wild type.

Amino acid sequences for entries named in this document (tags omitted). A change or cut given only in a name is not applied to a line headed by its entry. Chains listed by the source or under a name are the forms on record and can include a tag or linker. Residues count along the entry.
UniProt Q8IZP0: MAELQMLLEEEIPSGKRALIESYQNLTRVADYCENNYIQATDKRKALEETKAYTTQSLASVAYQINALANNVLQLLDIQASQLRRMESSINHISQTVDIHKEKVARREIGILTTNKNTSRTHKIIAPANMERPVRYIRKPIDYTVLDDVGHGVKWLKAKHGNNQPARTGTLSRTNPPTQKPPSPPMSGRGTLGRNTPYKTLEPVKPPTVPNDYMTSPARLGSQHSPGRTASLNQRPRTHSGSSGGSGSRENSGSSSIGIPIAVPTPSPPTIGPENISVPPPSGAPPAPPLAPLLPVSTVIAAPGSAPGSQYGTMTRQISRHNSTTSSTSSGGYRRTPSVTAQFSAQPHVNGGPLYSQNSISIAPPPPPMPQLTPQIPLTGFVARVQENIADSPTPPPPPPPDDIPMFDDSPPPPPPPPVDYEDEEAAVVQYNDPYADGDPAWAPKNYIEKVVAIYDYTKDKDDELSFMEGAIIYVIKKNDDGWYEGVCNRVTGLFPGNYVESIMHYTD
HA-tagged WAB region of ABI1 (aa 1-79): residues 1-79 of Q8IZP0
HA-tagged SNARE region of ABI1 (aa 45-107): residues 45-107 of Q8IZP0
HA-tagged HHR region of ABI1 (aa 93-169): residues 93-169 of Q8IZP0
HA-tagged proline-rich region of ABI1 (aa 170-340): residues 170-340 of Q8IZP0
GST-fused poly-proline+PxxDY region of ABI1: residues 341-425 of Q8IZP0
HA-tagged poly-proline region of ABI1 (aa 341-418): residues 341-418 of Q8IZP0
HA-tagged SH3 region of ABI1 (aa 419-508): residues 419-508 of Q8IZP0
UniProt Q12929: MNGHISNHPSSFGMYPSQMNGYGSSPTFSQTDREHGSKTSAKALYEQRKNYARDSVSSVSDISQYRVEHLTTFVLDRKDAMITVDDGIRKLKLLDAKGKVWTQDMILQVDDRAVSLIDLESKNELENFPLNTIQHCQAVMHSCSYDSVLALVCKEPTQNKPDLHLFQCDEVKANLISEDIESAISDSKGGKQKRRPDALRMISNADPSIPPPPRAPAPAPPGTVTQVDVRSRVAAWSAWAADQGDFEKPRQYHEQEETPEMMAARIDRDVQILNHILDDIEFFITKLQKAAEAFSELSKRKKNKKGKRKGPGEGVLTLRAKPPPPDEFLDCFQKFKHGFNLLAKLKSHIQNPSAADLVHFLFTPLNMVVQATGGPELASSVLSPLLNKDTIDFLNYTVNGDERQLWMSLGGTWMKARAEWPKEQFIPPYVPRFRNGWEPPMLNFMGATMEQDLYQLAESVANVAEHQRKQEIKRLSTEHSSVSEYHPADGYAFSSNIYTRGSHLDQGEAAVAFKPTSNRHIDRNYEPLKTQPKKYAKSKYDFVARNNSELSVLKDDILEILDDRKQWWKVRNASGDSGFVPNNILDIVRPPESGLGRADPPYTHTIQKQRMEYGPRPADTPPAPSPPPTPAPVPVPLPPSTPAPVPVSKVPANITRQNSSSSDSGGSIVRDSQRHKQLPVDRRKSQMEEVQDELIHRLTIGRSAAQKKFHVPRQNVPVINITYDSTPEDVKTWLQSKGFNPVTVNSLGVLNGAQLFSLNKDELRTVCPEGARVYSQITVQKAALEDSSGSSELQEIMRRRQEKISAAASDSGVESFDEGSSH

How the values were obtained:
[1] = molecular target: HA-tagged HHR region of ABI1 (aa 93-169) (human) (UniProt Q8IZP0); assay: co-IP; OVCAR3 cells (no ABI1 expression) co-transfected with tagged constructs (HA-ABI1 or its regions, Flag-SOS1 or its region, Myc-EPS8 or its region); 12 h starvation, 20 μM LPA; lysates
[2] = molecular target: HA-tagged WAB region of ABI1 (aa 1-79) (human) (UniProt Q8IZP0); assay: as above
[3] = molecular target: HA-tagged SH3 region of ABI1 (aa 419-508) (human) (UniProt Q8IZP0); assay: as above
[4] = molecular target: HA-tagged proline-rich region of ABI1 (aa 170-340) (human) (UniProt Q8IZP0); assay: as above
HA-tagged ABI1 (human) = HA-tagged ABI1 (human) (UniProt Q8IZP0); assay: as above
[5] = molecular target: HA-tagged SNARE region of ABI1 (aa 45-107) (human) (UniProt Q8IZP0); assay: as above
[6] = molecular target: HA-tagged poly-proline region of ABI1 (aa 341-418) (human) (UniProt Q8IZP0); assay: as above
[7] = molecular target: GST-ABI1 (on beads) (human) (UniProt Q8IZP0); assay: pull-down; data not shown: GST-ABI1 beads with SK-OV3 cell lysates and 15-aa peptides (10 μM); immunoblot for SOS1; only the target purified
[8] = molecular target: GST-ABI1 (on beads) (human) (UniProt Q8IZP0); assay: pull-down; GST-ABI1 beads with LPA-stimulated SK-OV3 cell lysates to which peptides (10 μM) were added 1 h before; immunoblot for SOS1 or EPS8; only the target purified
[9] = molecular target: ABI1 (endogenous, SK-OV3 cells) (human (endogenous in SK-OV3)) (UniProt Q8IZP0); assay: co-IP; endogenous proteins; SK-OV3 cells treated with LPA for 5 min; lysate incubated with anti-ABI1 antibody at 4 °C overnight, then beads; western blot with anti-SOS1 or anti-EPS8
[10] = molecular target: GST-fused SH3 region of ABI1 (human) (UniProt Q8IZP0); assay: pull-down; GST-fused ABI1 fragments on beads incubated with LPA-treated OVCAR3 cell lysates for 2 h; immunoblot for SOS1 or EPS8; only the target purified
[11] = molecular target: HA-tagged poly-proline+PxxDY region of ABI1 (aa 341-425) (human) (UniProt Q8IZP0); assay: co-IP; OVCAR3 cells (no ABI1 expression) co-transfected with tagged constructs (HA-ABI1 or its regions, Flag-SOS1 or its region, Myc-EPS8 or its region); 12 h starvation, 20 μM LPA; lysates
[12] = molecular target: GST-fused poly-proline+PxxDY region of ABI1 (human) (UniProt Q8IZP0); assay: pull-down; GST-fused ABI1 fragments on beads incubated with LPA-treated OVCAR3 cell lysates for 2 h; immunoblot for SOS1 or EPS8; only the target purified

In the case of “Flag-tagged SOS1 (from UniProt Q07889 1-1333)”, the binding [1] is reported as “no binding”, the binding [2] is reported as “no binding” and the binding [3] is reported as “binds”. For the same substance, the binding [4] was “no binding”, the binding (HA-tagged ABI1 (human)) was “binds” and the binding [5] was “no binding”. For the same substance, the binding [6] was “no binding”.
In the case of “SOS1 (endogenous, SK-OV3 cells) (from UniProt Q07889 1-1333)”, the binding [7] is reported as “binds”, the binding [8] is reported as “binds” and the binding [9] is reported as “binds”.
“SOS1 in OVCAR3 cell lysate (from UniProt Q07889 1-1333)” was tested, and the binding [10] was “binds”.
In the case of “Myc-tagged SH3 region of EPS8 (aa 535-586) (from UniProt Q12929 535-586) (domain or fragment)”, the binding (HA-tagged ABI1 (human)) is reported as “binds”.
For “Myc-tagged EPS8 (from UniProt Q12929 1-822)”, the binding [1] was “no binding”, the binding [2] was “no binding” and the binding [3] was “no binding”. The binding [4] was “no binding”, the binding (HA-tagged ABI1 (human)) was “binds” and the binding [5] was “no binding”. The binding [11] was “binds” and the binding [6] was “no binding”.
With “EPS8 (endogenous, SK-OV3 cells) (from UniProt Q12929 1-822)” the binding [9] was “binds”.
“EPS8 in OVCAR3 cell lysate (from UniProt Q12929 1-822)” was tested, and the binding [12] was “binds”.
With “Flag-tagged proline-rich region of SOS1 (aa 1131-1333) (from UniProt Q07889 1131-1333) (domain or fragment)” the binding (HA-tagged ABI1 (human)) was “binds”.
